# Measured values taken from article PMC6946549 (Biochemistry, 2019).
# B1: ChsH1 (from the ChsH1-ChsH2 and ChsH1-ChsH2^N complexes made in E. coli) (enzyme)
# chain: not shown
# Columns and labels:
# [1] = biological target: ChsH2^N (ChsH2 amino acid […], C-terminal DUF35 domain absent) (Mycobacterium tuberculosis H37Rv); test: SAXS
# [2] = biological target: ChsH2, full length (from the ChsH1-ChsH2 complex made in E. coli) (Mycobacterium tuberculosis H37Rv); test: SAXS
binder,measurement,setting,value
B1,binding result,[1],binds
same,binding result,[2],binds
